Results on 25 molecules are retold here after publication PMC4336329 (PLoS ONE, 2015).

Structures are written as SMILES. Screen size: about 310,000 compounds; about 14,000 (4.5%) showed an effect of 50% or more. The effect is printed as a negative number. This is one part of the list.
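Note: peak tail current of the secondary pulse compared with the same well before compound.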

Chain of human ether-à-go-go-related gene (hERG) potassium channel (Q12809 whole entry, looked up): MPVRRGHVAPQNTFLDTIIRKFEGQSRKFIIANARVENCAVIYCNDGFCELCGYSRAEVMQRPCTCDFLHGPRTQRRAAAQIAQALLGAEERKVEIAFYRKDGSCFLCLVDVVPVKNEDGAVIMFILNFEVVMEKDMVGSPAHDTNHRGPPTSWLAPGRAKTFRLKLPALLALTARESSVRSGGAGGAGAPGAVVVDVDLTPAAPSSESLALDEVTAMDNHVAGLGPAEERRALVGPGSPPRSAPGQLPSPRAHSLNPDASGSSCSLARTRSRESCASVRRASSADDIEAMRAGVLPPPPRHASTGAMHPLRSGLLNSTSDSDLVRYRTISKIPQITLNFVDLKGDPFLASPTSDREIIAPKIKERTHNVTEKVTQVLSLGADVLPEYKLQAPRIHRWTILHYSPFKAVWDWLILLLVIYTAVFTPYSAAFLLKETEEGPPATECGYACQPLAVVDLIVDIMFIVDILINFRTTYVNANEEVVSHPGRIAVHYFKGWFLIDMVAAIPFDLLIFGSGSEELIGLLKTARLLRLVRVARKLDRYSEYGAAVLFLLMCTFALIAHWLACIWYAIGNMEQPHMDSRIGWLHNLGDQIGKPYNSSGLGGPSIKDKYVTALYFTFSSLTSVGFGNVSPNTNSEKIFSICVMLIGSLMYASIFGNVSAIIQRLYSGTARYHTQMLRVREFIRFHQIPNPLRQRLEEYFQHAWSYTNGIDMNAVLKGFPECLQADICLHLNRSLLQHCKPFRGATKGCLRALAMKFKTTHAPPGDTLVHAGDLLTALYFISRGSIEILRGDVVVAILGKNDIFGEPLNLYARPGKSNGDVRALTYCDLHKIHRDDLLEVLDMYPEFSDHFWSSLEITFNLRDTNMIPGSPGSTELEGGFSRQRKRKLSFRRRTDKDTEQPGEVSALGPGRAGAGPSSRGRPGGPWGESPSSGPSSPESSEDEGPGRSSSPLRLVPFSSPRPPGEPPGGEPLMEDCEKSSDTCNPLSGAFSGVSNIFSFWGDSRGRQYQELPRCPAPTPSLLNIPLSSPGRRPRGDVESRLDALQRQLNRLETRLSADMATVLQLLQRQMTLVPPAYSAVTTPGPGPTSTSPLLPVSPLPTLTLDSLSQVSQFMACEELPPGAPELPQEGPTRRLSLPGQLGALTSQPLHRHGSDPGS

This experiment has as its target human ether-à-go-go-related gene (hERG) potassium channel (human, UniProt Q12809). The experiment is described as follows: primary screen, population patch clamp on CHO cells stably expressing hERG.
With `Cc1sc2ncnc(SCC(=O)NC(=O)NCc3ccco3)c2c1C`, the “hERG current change (%, negative = inhibition) at 10uM” value was -7.52%.

`Cc1ccc(C(=O)/C=C2\NCCNC2=O)cc1`: the “hERG current change (%, negative = inhibition) at 10uM” value worked out at 10.9%.

Regarding `O=C(NCCN1CCOCC1)c1cc(-c2ccc(Cl)cc2)on1`, the “hERG current change (%, negative = inhibition) at 10uM” value is given as -26.1%.

Consider `O=C(Nc1ccc(Cl)cc1)c1ccc(OCC2CCCO2)cc1` (stereo not shown), for which the “hERG current change (%, negative = inhibition) at 10uM” value is -7.37%.

`C/C(=N\NC(=O)c1cccc(O)c1)c1cccc(NC(=O)c2ccc(F)cc2)c1`: the “hERG current change (%, negative = inhibition) at 10uM” value is given as -8.24%.

As for `COC(=O)CN1CCN(C(=O)c2ccco2)CC1`, the “hERG current change (%, negative = inhibition) at 10uM” value turned out to be 10%.

For the molecule `CCCCn1c(N)c(N(CCOC)C(=O)c2ccc(S(=O)(=O)N3CCCCC3)cc2)c(=O)[nH]c1=O`, the “hERG current change (%, negative = inhibition) at 10uM” value was -25.1%.

Turning to `CC(=O)c1cccc(NC(=S)N2CCc3ccccc32)c1`, the “hERG current change (%, negative = inhibition) at 10uM” value came out at 15.7%.

For `N/C(=N\NC(=O)c1ccc(Cl)cc1)c1cnccn1`, the “hERG current change (%, negative = inhibition) at 10uM” value came to 8.81%.

Consider `CCOC(=O)c1cc2[nH]c3ccccc3c2[n+](-c2ccc([N+](=O)[O-])cc2)c1C.[Cl-]`, for which the “hERG current change (%, negative = inhibition) at 10uM” value is listed as -77.8%.

For `CN(C)/C=C(/C(=O)c1ccc(F)cc1)S(=O)(=O)c1ccc(F)cc1`, the “hERG current change (%, negative = inhibition) at 10uM” value was determined as 7.78%.

As to `COc1cccc(NC(=O)C(C)N2C(=O)c3ccccc3C2=O)c1` (stereo not shown), the “hERG current change (%, negative = inhibition) at 10uM” value turned out to be 0.532%.

Consider `Cn1c(CNC(=O)C2CCCCC2)cc2ccccc21`, for which the “hERG current change (%, negative = inhibition) at 10uM” value is on record as 17%.

Consider `CC1CC(C)CN(S(=O)(=O)c2ccc3c(c2)CCN3C(=O)CCC(=O)O)C1` (stereo not shown), for which the “hERG current change (%, negative = inhibition) at 10uM” value is reported as 18.4%.

Turning to `Nc1nc2ccccc2n1C(=O)c1ccccc1`, the “hERG current change (%, negative = inhibition) at 10uM” value is -15.2%.

On to `COc1cccc(-n2c(SCC(N)=O)nnc2-c2ccco2)c1`, for which the “hERG current change (%, negative = inhibition) at 10uM” value is recorded as 13.7%.

As to `O=C(O)Cc1c(C(=O)O)[nH]c2ccc(C(=O)O)cc12`, the “hERG current change (%, negative = inhibition) at 10uM” value is recorded as 12.2%.

Consider `FC(F)(F)c1cc(-c2ccccc2)nc(NCc2cccs2)n1`, for which the “hERG current change (%, negative = inhibition) at 10uM” value was -2.52%.

On to `Cc1ccc(CNC(=O)c2ccc(Cl)c(S(=O)(=O)N3CCCCC3)c2)cc1`, for which the “hERG current change (%, negative = inhibition) at 10uM” value is -27.3%.

As for `CCC(C)N(C(=O)COC(=O)CN=C1NS(=O)(=O)c2ccccc21)C1CCS(=O)(=O)C1` (stereo not shown), the “hERG current change (%, negative = inhibition) at 10uM” value came to 1.69%.

In the case of `COc1cc(OC)c(OC)cc1CCC(C)NC(=O)Cc1ccccc1` (stereo not shown), the “hERG current change (%, negative = inhibition) at 10uM” value turned out to be 5.68%.

For `CNC(=O)NC(=O)CSc1nnc(C(F)(F)F)n1C`, the “hERG current change (%, negative = inhibition) at 10uM” value turned out to be 7.84%.

Consider `CC(Oc1ccc(F)cc1)C(=O)Nc1cc(S(=O)(=O)N2CCOCC2)ccc1N1CCN(C)CC1` (stereo not shown), for which the “hERG current change (%, negative = inhibition) at 10uM” value is on record as -29.9%.

Consider `O=C(Nc1ccccc1F)Nc1cc(S(=O)(=O)N2CCOCC2)ccc1N1CCCC1`, for which the “hERG current change (%, negative = inhibition) at 10uM” value is given as -19%.

Consider `O=C1c2ccncc2C(=O)N1Cc1cccc(Cl)c1`, for which the “hERG current change (%, negative = inhibition) at 10uM” value is -4.02%.
